Here are results for 85 compounds from ChEMBL document CHEMBL4888484, “Replenishing the malaria drug discovery pipeline: Screening and hit evaluation of the MMV Hit Generation Library 1 (HGL1) against asexual blood stage Plasmodium falciparum ,using a nano luciferase reporter read-out” (2022).

As usually defined, the % Inhibition is the change of the read-out against control, counted positive when it falls.

In all, about 150,000 compounds went through this assay and about 540 (0.36%) showed an effect of 50% or more. Some of the results follow.

The subject of the test is Plasmodium falciparum. Kind of test: Primary screen in NF54 nanoGlo assay, in single point, at 2uM, 72h; a lower Z score goes with more inhibition. To be noted: timepoint 72 hour. The class given is functional, Erythrocyte.
Turning to `COc1ccc(NC(=O)c2sc(-c3cn(C(C)C)c4ncccc34)nc2C)c(OC)c1`, the “% Inhibition” value is -1% and the Z score amounted to 0.13.
As for `Cc1ccc(Nc2cc(=O)[nH]c(N)n2)cc1`, the “% Inhibition” value worked out at 2% and the Z score is listed as -0.26.
The like results for `COCCS(=O)(=O)N[C@@H](C)c1cc(OC)ccc1OC` were, in that order, 18% and -2.42.
With `CC(C)c1csc(-c2csc(S(=O)(=O)Nc3ccc(F)c(F)c3)c2)n1`, the “% Inhibition” value is -13% and the Z score was 1.86.
On to `C[C@@H](C(=O)N1CCCC1)N(C)CC1(CO)CCC1`, for which the “% Inhibition” value is -10% and the Z score was found to be 1.29.
The like results for `CC(=O)/C(=N\Nc1ccccc1)N1CCOCC1` were, in that order, -8% and 0.88.
The matching figures for `C[C@H](NS(C)(=O)=O)c1nc(C(C)(C)C2CCC2)no1`: -10% and 1.8.
For `O=C(CCc1cncc(F)c1)NCc1cccc(CO)n1`, the “% Inhibition” value is -2% and the Z score amounted to 0.32.
The matching figures for `Cc1nnc(N2CCN(C(=O)c3sc4cccc(F)c4c3C)CC2)c(C#N)c1C`: -12% and 1.82.
Regarding `Cc1cc(C)n2ncc(CN3CCCC[C@H]3c3cc(C)on3)c2n1`, the “% Inhibition” value is 11% and the Z score is -1.58.
The matching figures for `Cc1cnc(C)c(-c2ccc(C(=O)NCCC(=O)N3CCC(C)CC3)cc2)n1`: -8% and 1.61.
In the case of `Cc1ccc(C)c(N2CCN(C(=O)c3nnc(-c4oc5ccc(C)cc5c4C)o3)CC2)c1`, the “% Inhibition” value turned out to be 17% and the Z score was -2.
The matching figures for `Cc1ccc(OC[C@H]2c3ccsc3CCN2C(=O)CN(C(=O)c2ccccc2)C(C)(C)C)c(C)c1`: -8% and 0.81.
Regarding `Cc1c(C2=CCN(S(=O)(=O)c3ccc(CC(C)C)cc3)CC2)c2ccccc2n1CC(=O)N1CCCC1`, the “% Inhibition” value is recorded as -15% and the Z score amounted to 2.36.
The matching figures for `O=C(CCn1cnnn1)Nc1nc(-c2cccs2)n[nH]1`: -1% and 0.1.
As to `CCc1cnc(C(C)NC(C)c2ccc(C)o2)s1` (stereo not given), the “% Inhibition” value was determined as 1% and the Z score is given as -0.09.
With `Cc1ccc(Cl)cc1N1CCN(C(=O)c2ccc(-n3ccc4ccccc43)s2)CC1`, the “% Inhibition” value is recorded as -16% and the Z score was determined as 2.05.
On to `c1ccc(Nc2c(-c3ccccc3)nc3[nH]cnn23)cc1`, for which the “% Inhibition” value was 2% and the Z score is on record as -0.22.
The matching figures for `CC(C)(C)OC(=O)NC1(CO)CCC1`: 12% and -1.42.
The matching figures for `Cc1ccc2c(C(=O)NC3CC(NS(C)(=O)=O)C3)c(C)ccc2c1` (stereo not given): -11% and 1.77.
The matching figures for `COc1ccc(OCCS(=O)(=O)Nc2ccc3sc(C)nc3c2)cc1`: -15% and 2.05.
Take `C[C@H]1CCN(C(=O)N2CCc3ccsc3C2)C1`: the “% Inhibition” value was -1% and the Z score is 0.2.
Consider `Cc1nnnn1CCC(=O)NC1(c2cc(F)cc(F)c2)CC1`, for which the “% Inhibition” value is recorded as 15% and the Z score is -2.01.
The matching figures for `CNS(=O)(=O)[C@H]1CCN(c2cc(C)c(Br)cn2)C1`: -5% and 0.46.
`CCCCCn1cc(C2CCN(C(=O)CC(C)(C)C)CC2)c2ccccc21`: the “% Inhibition” value was -10% and the Z score is 1.22.
On to `Cc1cc(C(=O)N[C@H]2CCCN(CCCc3ccccc3)C2)c(C)o1`, for which the “% Inhibition” value is listed as -9% and the Z score was 1.26.
Consider `CC[C@H](NCc1ccc(-c2cc[nH]n2)o1)c1nc(C)c(C)s1`, for which the “% Inhibition” value is given as -24% and the Z score turned out to be 2.16.
Consider `COC(=O)C(C(=O)OC)C(C(=O)OC)(C(=O)OC)N1CCOCC1`, for which the “% Inhibition” value is recorded as 2% and the Z score is on record as -0.25.
The matching figures for `CC(C)(C(=O)NC1CCCC1)C(F)F`: -10% and 1.94.
The like results for `CNC(=O)c1nnsc1N1CCN(c2ccccn2)CC1` were, in that order, -43% and 5.06.
Turning to `Cc1nc(C2CC2)ccc1C(=O)N[C@H]1CCCn2c(C)nnc21`, the “% Inhibition” value is 4% and the Z score is reported as -0.45.
The matching figures for `CCNc1ccc(C#N)cc1NCc1noc(C)n1`: -2% and 0.17.
Regarding `CCC[N+]1(CC#CC2(O)CCCCC2)CCOCC1`, the “% Inhibition” value was -9% and the Z score stood at 1.67.
The matching figures for `CN1CC2(C)CN(C(=O)c3cccc(C#CC(C)(C)O)c3)CC(C)(C1)C2`: -8% and 0.88.
The matching figures for `COc1ccc(-c2nc3ccc(C(=O)NCCc4ccc(OC)c(OC)c4)cc3nc2-c2ccc(OC)cc2)cc1`: 19% and -2.56.
The matching figures for `Cc1cc(=O)cc(C(=O)N[C@@H](C)CCCC(C)(C)O)[nH]1`: -14% and 1.83.
Regarding `Cn1ccc(CCC(=O)N[C@H]2CCCC[C@H]2CC(F)(F)F)n1`, the “% Inhibition” value is given as -6% and the Z score is 0.74.
For `Cc1nc([C@@H]2CCCN2Cc2cn(C(C)C)nc2C)cs1`, the “% Inhibition” value is reported as -5% and the Z score is reported as 0.73.
The like results for `Cc1cccc(CC2CN(C(=O)c3cc(C(C)C)nn3C)C2)c1` were, in that order, -10% and 1.44.
Regarding `O=C1N(Cc2c(Cl)cccc2Cl)c2ccccc2[C@@]1(O)Cc1ccncc1`, the “% Inhibition” value is on record as -30% and the Z score is on record as 2.61.
Take `C[C@H]1Cc2ccccc2N1C(=O)CS(=O)(=O)c1cccnc1`: the “% Inhibition” value came out at 6% and the Z score was -0.79.
The matching figures for `CC1CCCN(CC(C)NC(=O)c2n[nH]c3ccccc23)C1` (stereo not given): -5% and 0.62.
The matching figures for `Cc1ccc(N[C@@H](C(N)=O)c2c(C)[nH]c(=O)[nH]c2=O)cc1`: -18% and 2.36.
Regarding `CN1C(=O)COC(C(=O)N2CCOC(c3cccc(O)c3)C2)C1c1ccccc1` (stereo not given), the “% Inhibition” value is -10% and the Z score amounted to 1.75.
With `O=C(NC1CCCC1CCO)c1cccc(C2CCOC2)c1` (stereo not given), the “% Inhibition” value came to 17% and the Z score was -2.32.
For the compound `CN(Cc1ccccn1)c1ncc(Cl)cc1F`, the “% Inhibition” value is on record as -19% and the Z score is reported as 2.17.
In the case of `CC1(C)Oc2ccc(NC(=O)COc3ccccc3)cc2NC1=O`, the “% Inhibition” value stood at 31% and the Z score is listed as -1.13.
The matching figures for `COc1cc(C2N3CCc4ccccc4C3CN2S(=O)(=O)c2ccccc2)ccc1OS(=O)(=O)c1ccccc1` (stereo not given): 35% and -3.95.
On to `CCC(CC)(CC)NCc1cc(Cl)ccc1OCC#N`, for which the “% Inhibition” value is on record as -10% and the Z score is on record as 0.93.
The like results for `O=C(CN1C(=O)c2ccccc2C1=O)NC1CCN(Cc2ccccc2)CC1` were, in that order, 4% and -0.5.
The matching figures for `CC(C)C(=O)N1CCCN(S(=O)(=O)N(C)C[C@H](C)C#N)CC1`: -9% and 1.35.
With `CC1CN(CC(=O)Nc2nc(-c3ccc(Cl)cc3)cs2)CC(C)O1` (stereo not given), the “% Inhibition” value is listed as -20% and the Z score worked out at 2.73.
The like results for `Cc1nc(-c2ccccc2)c(N)c(N2CCCC2)n1` were, in that order, -18% and 2.25.
The like results for `Cc1cc(C)c(C(=O)NCCc2ncc[nH]2)cc1C` were, in that order, -2% and 0.31.
The like results for `Cc1nc([C@H](O)c2ccccc2)n(-c2cccc(Cl)c2F)n1` were, in that order, -8% and 1.33.
Consider `Cc1n[nH]c(C)c1CC(=O)N(C)CC(=O)Nc1cc(F)cc(F)c1`, for which the “% Inhibition” value was -3% and the Z score was 0.28.
The like results for `O=C(c1cccc(-n2cncn2)c1)N(CC1CC1)C1CCCCC1` were, in that order, -2% and 0.23.
For the compound `COc1ccc(-n2nnc3c(=O)n(CC(=O)N4CC(C)OC(C)C4)cnc32)cc1OC` (stereo not given), the “% Inhibition” value is reported as -3% and the Z score was 0.65.
As for `O=C1CC2(CCN(C(=O)c3ncoc3C3CC3)CC2)CN1Cc1ccccc1`, the “% Inhibition” value was -6% and the Z score turned out to be 0.63.
Turning to `Cn1cc([C@@H]2CCCN2Cc2nc3ccccc3n2C)cn1`, the “% Inhibition” value is listed as 2% and the Z score is -0.28.
As for `O[C@@H](c1ccco1)c1nccn1Cc1cc(Cl)ccc1F`, the “% Inhibition” value is on record as 2% and the Z score is listed as -0.31.
The like results for `O=C1C[C@]2(NC(=O)Nc3ccc4c(c3)OCCNC4)CCCC[C@@H]2N1` were, in that order, 14% and -1.83.
With `NC(=O)Cn1ccnc1C1CCN(C(=O)c2n[nH]c3ccccc23)CC1`, the “% Inhibition” value is on record as -5% and the Z score came out at 0.59.
Consider `O=C1CN(C(=O)Nc2nc(-c3ccccc3Cl)ns2)CCN1`, for which the “% Inhibition” value is 6% and the Z score is reported as -0.89.
The matching figures for `CN(Cc1ccccn1)C[C@]1(O)CCc2ccccc21`: -8% and 1.48.
Take `CC(=O)Nc1ccc(Cc2nc(-c3ccc(N4CCOCC4)cc3)no2)cc1`: the “% Inhibition” value was -16% and the Z score is 2.13.
The matching figures for `O=C(Nc1ccc(S(=O)(=O)N2CCCC2)cc1)c1ccc2ccccc2n1`: -17% and 1.75.
The matching figures for `CC(C)c1nc(N2CCN(C3CCN(C(C)C)CC3)[C@@H](CCO)C2)no1`: -7% and 0.6.
The matching figures for `COc1cc(NC(=O)c2cnc(N(C)C)nc2)cc(OC)c1`: 4% and -0.68.
In the case of `CCOC(=O)[C@H]1CCCN(C(=O)CCN(CC)C(=O)c2cc3n(n2)CCCN(Cc2ccc(F)cc2)C3=O)C1`, the “% Inhibition” value was determined as 5% and the Z score is on record as -0.71.
For the compound `O=C(Nc1cc(C(F)(F)F)ccc1Cl)[C@@H]1COCC(=O)N1Cc1cccs1`, the “% Inhibition” value is listed as -10% and the Z score was found to be 1.74.
As for `CC(C)(CNC(=O)c1cccs1)C(F)(F)F`, the “% Inhibition” value is listed as -34% and the Z score stood at 4.
The matching figures for `CCCCn1ncc(C)c1NC(=O)CCC(=O)N(C)C`: 2% and -0.41.
Consider `NC(CC1CCCCC1)C(=O)NC1CC1c1ccccc1` (stereo not given), for which the “% Inhibition” value is given as -2% and the Z score is recorded as 0.24.
As to `O=C(Nc1ccccc1)N1CCCN(C(=O)Nc2ccccc2)CC1`, the “% Inhibition” value was 7% and the Z score is given as -1.38.
The like results for `COc1nc(-c2cccc(C(=O)N(CCO)Cc3nccn3C)c2)nn1C` were, in that order, -13% and 1.24.
For `O=C(NCc1cc[nH]n1)NCC1(N2CCOCC2)CCCCC1`, the “% Inhibition” value turned out to be 2% and the Z score is -0.22.
For `CCn1ccc(C(=O)N2CC(n3ccnc3C)C2)n1`, the “% Inhibition” value was 0% and the Z score worked out at 0.09.
The matching figures for `CCNc1nc(C)c(C(=O)N[C@@H](C)c2nnc(C(C)C)o2)s1`: -6% and 0.95.
The like results for `Cc1ccc(-n2nc3c(N4CCC(C(=O)NC5CCCC5)CC4)nnc(C)c3c2C)cc1` were, in that order, 12% and -1.38.
The matching figures for `CC1CCN(c2nnc(C(=O)NCc3cccc(C(F)(F)F)c3)c3ccccc23)CC1`: -11% and 1.02.
For the compound `C[C@@H](CN1CCN(c2ccccn2)CC1)NC(=O)CCc1ccco1`, the “% Inhibition” value is listed as -10% and the Z score was 0.88.
The matching figures for `c1nc(-c2ccc(N3CCC(N[C@H]4CCCOC4)CC3)cc2)cs1`: 13% and -1.69.
The like results for `CC(C)CCc1noc(CN(CC#N)S(=O)(=O)N(C)C)n1` were, in that order, -5% and 0.57.
The matching figures for `Cc1oc2ncn(Cc3ccc(F)cc3)c(=O)c2c1C(=O)O`: -11% and 1.48.
